PubChem BioAssay AID588579 (National Center for Advancing Translational Sciences (NCATS), 2011)
Screen size: about 400,000 compounds; about 2,200 (0.55%) were called active. Inconclusive results, whose numbers are uncertain, are shown with a selection of clear calls. The call rests on the fitted dose curve; in most records, active means well fitted inhibition curve with a large enough effect; inconclusive means small, poorly fitted or top-dose-only effect, or another doubt; inactive means no such curve, though single readings can be large or run the other way. Potencies of inconclusive entries are doubtful fits and often do not repeat.

molecular target: DNA polymerase kappa (Homo sapiens) (UniProt Q9UBT6); test: qHTS for Inhibitors of Polymerase Kappa; conditions: purified Pol kappa, fluorescent DNA synthesis assay, 10 min; series mostly up to 107 µM
Outline: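 10 nM Pol kappa preincubated 15 min at room temperature with compounds, then reaction started with substrate at 50 nM final. Fluorescence read kinetically at 0 and 10 min; buffer-only wells served as negative control.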
Potency means the concentration at half of the fitted maximal effect; tags describe the fitted curve by direction and shape.

UniProt Q9UBT6, sequence (Q9UBT6 whole entry, looked up): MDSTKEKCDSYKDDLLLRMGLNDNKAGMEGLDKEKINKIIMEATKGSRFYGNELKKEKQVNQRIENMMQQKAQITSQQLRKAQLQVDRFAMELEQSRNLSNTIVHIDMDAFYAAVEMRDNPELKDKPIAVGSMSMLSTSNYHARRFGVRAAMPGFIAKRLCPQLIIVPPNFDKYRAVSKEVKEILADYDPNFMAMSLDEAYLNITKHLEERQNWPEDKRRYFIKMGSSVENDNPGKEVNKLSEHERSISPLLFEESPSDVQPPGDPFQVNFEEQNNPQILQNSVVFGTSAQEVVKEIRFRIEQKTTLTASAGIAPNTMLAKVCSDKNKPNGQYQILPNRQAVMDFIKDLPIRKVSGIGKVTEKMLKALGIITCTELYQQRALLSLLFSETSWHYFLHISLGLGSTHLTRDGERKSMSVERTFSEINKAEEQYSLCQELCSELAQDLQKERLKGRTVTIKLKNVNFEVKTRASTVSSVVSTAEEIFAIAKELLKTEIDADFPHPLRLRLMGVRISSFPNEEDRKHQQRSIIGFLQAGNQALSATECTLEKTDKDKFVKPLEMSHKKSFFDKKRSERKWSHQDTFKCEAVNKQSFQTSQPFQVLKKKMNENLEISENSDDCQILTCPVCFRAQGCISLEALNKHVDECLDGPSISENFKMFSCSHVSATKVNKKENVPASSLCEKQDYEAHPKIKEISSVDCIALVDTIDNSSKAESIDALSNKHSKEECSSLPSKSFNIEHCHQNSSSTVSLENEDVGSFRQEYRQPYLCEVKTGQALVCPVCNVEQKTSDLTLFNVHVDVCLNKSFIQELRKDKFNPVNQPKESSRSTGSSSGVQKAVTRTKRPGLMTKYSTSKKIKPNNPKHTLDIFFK

Compound | Potency
CCOc1ccccc1NC(=O)C1CCCN(S(=O)(=O)c2cccs2)C1 (centres undefined) | inconclusive: 89.1 µM [inhibitor, partial curve, poor fit]
COc1ccccc1N1CCN(CCN(C(=O)c2ccc(I)cc2)c2ccccn2)CC1 | inconclusive: 42.3 µM [inhibitor, partial curve, poor fit]
COC(=O)c1ccccc1NC(=O)c1noc2c1CCC2 | inconclusive: 39.8 µM [inhibitor, single point]
C#CCOCCOCCOCCNc1nc(N2CCN(C(=O)CCCCCCCCCCNC(=O)Cn3cc(C[C@@H](C)O)nn3)CC2)nc(N2CCN(C(=O)CCCCCCCCCCNC(=O)[C@@H]([C@H](C)CC)n3cc(CCCCCN)nn3)CC2)n1 | inactive
COc1ccc2c(CNCCc3ccc(SC)cc3)c(C(=O)O)n(Cc3ccc(F)cc3)c2c1 | inactive
N#CCSc1ncnc2sc3c(c12)CCC3 | inconclusive: 25.1 µM [inhibitor, full curve]
COc1ccc(-c2nc3scc(CCNS(=O)(=O)c4ccc(Oc5ccccc5)cc4)n3n2)cc1OC | inactive
CC(C)[C@H](NS(=O)(=O)c1cccc(Cl)c1)C(=O)OCC(=O)NC(=O)CN1CCCC1=O | inconclusive: 89.1 µM [inhibitor, single point]
COc1cc(/C=N/NC(=O)c2cc(-c3ccco3)nc3ccccc23)cc(OC)c1O | inconclusive: 89.1 µM [inhibitor, single point]
CCCCNC(=O)c1cc2cccc([N+](=O)[O-])c2[nH]1 | inactive
COc1cccc(C2C3=C(CC(C)(C)CC3=O)Nc3cc(OC)c(OC)cc32)c1 (centres undefined) | inactive
Oc1ccc(/C=N/N(c2ccccc2)c2ccccc2)cc1O | inconclusive: 89.1 µM [inhibitor, partial curve, poor fit]
CN(C)S(=O)(=O)c1ccc(C(=O)NCCC(=O)N2CCCC2)cc1 | inactive
CCOc1ccc(C2C(=O)N(C3CCCCCC3)CC(=O)N2Cc2ccccc2)cc1OC (centres undefined) | inactive
CCn1c(SCC(=O)Nc2oc(-c3ccccc3)c(-c3ccccc3)c2C#N)nnc1-c1cc(OC)cc(OC)c1 | inconclusive: 79.4 µM [inhibitor, partial curve, poor fit]
CCCCn1c(=O)c2[nH]c(C34CC5CC(CC3C5)C4)nc2n(CCCO)c1=O | inactive
Cc1cccc(NC(=O)CNC(=O)c2cccc(-n3cccc3)c2)c1C | active: 31.6 µM
COc1cccc(NCc2nnc(SC(C(=O)N(C)C)c3ccccc3)n2C2CCCCC2)c1 (centres undefined) | inactive
N#Cc1c(-c2ccc(Cl)cc2)cc(-c2cccs2)nc1SCC(=O)O | inconclusive: 89.1 µM [inhibitor, partial curve]
